# Measured values from paper PMC4336329 (PLoS ONE, 2015).
# Among all 310,000 compounds or so, about 2,200 (0.71%) showed an effect of 50% or more. Effects have a minus sign here. The list shows a part of the results.
# Target: human ether-à-go-go-related gene (hERG) potassium channel (human, UniProt Q12809)
# Experiment: primary screen, population patch clamp on CHO cells stably expressing hERG
# Chain of human ether-à-go-go-related gene (hERG) potassium channel (Q12809 whole entry, looked up): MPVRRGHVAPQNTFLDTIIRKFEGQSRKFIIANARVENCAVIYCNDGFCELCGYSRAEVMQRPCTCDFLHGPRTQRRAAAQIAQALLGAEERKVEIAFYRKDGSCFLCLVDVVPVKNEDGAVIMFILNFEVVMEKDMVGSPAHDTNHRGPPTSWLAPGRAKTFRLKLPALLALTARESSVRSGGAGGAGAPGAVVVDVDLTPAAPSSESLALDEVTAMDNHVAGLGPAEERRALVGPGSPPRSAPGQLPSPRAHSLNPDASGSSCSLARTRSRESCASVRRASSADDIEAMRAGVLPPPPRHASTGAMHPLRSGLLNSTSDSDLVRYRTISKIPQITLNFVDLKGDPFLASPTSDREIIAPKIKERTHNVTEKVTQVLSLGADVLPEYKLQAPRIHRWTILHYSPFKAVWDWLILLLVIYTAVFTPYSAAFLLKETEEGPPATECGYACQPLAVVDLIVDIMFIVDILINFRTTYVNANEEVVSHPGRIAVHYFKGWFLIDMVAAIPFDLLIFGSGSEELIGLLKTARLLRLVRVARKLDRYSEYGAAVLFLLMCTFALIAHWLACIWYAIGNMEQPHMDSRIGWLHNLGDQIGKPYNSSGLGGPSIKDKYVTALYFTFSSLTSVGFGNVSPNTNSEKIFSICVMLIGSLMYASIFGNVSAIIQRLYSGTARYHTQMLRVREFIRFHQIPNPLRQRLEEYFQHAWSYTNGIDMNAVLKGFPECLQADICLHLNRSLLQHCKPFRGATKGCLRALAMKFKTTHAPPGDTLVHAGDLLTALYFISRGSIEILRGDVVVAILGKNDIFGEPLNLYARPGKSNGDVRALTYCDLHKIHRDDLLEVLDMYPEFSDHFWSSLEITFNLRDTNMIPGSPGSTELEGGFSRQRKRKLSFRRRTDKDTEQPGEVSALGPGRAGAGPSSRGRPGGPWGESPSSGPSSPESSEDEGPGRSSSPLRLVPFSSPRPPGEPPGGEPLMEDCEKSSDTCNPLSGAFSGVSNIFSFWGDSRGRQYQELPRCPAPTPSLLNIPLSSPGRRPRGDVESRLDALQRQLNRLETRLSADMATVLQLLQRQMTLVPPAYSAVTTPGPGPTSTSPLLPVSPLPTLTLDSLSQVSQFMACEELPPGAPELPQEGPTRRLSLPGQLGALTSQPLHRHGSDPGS
row,SMILES,"hERG current change (%, negative = inhibition) at 1uM"
1,CC(C(=O)NCC1CCCCC1)N1CCN(S(=O)(=O)c2ccccc2F)CC1 (stereo not shown),10.2%
2,CCN(CC)c1ccc2c(c1)CCCN2.Cl,10.4%
3,O=C(Nc1ccc(Cc2ccncc2)cc1)C1CCC(N2C(=O)C3CCCCC3C2=O)CC1 (stereo not shown),4.62%
4,CC1(C)CC(=O)C=C(Nc2ccc(C(=O)O)c(O)c2)C1,15.3%
5,C(=C\c1ccccc1)/C=N/Nc1ccc2nncn2n1,-3.59%
6,CN1CCN(c2ccc([N+](=O)[O-])c(Sc3nc4ccccc4[nH]3)c2)CC1,6.54%
7,O=C(NCc1ccccc1)C1CCC(=O)N(CCN2CCOCC2)C1 (stereo not shown),15.8%
8,Cc1cccc(NS(=O)(=O)c2cccc(C(=O)N3CCC3)c2)c1,13.6%
9,O=C(COc1ccccc1)N1CCN=C1SCc1cccc(F)c1,8.03%
10,CC(C)Cc1nc2sc3c(=O)[nH]cnc3c2c2c1CCC2,7.77%
11,Clc1ccc(Cn2nc(-c3ccccc3)nc2-c2ccccc2)cc1,-2.71%
12,O=C(c1ccccc1)C1CCN(CC(=O)N2CCN(c3ccccc3)CC2)CC1,10.9%
13,CN(NC1CC(=O)N(c2ccccc2)C1=O)c1ccccc1 (stereo not shown),7.11%
14,CNc1nc(N)c([N+](=O)[O-])c(NCC2CCCO2)n1 (stereo not shown),14.8%
15,Cc1ccc(SCC(=O)Nc2ccc(N3CCN(C)CC3)c(F)c2)cc1,-20.9%
16,COc1ccc(-n2cnc3sccc3c2=O)cc1,16.4%
17,N#Cc1ccc(C(=O)OCC(=O)N2CCCC2)cc1,18%
18,CCCNC(=O)c1onc(CSc2ccc(Cl)cc2)c1C(=O)NCCOC,-6.65%
19,CN(CC(=O)Nc1cccnc1)S(=O)(=O)c1cc(Cl)ccc1Cl,1.33%
20,CC(NC(=O)Nc1ccc2c(c1)OCO2)c1ccncc1 (stereo not shown),2.49%
21,Cc1ccc(NS(=O)(=O)c2ccc(C(=O)N3CC(C)CC(C)C3)cc2)cc1 (stereo not shown),-0.772%
22,CCOC(=O)C(NC(=O)CC)(Nc1ccc(S(=O)(=O)Nc2cc(C)on2)cc1)C(F)(F)F (stereo not shown),21%

row,SMILES,"hERG current change (%, negative = inhibition) at 1uM"
1,O=C(O)c1cc(Cl)c2c(c1)[C@@H]1C=CC[C@@H]1[C@H](c1ccc(S(=O)(=O)N3CCOCC3)cc1)N2,-0.464%
2,Cc1nccc(-c2sc(-c3cccs3)nc2C)n1,2.8%
3,Cc1ccc(/C=C/C(=O)NC2=NCCS2)cc1,11.8%
4,Cc1nn(C)cc1/C=N/NC(=O)C(C)(C)Oc1ccc(Cl)cc1,11.5%
5,CC(C(=O)Nc1ccccc1-c1ccccc1)N1CCN(S(=O)(=O)c2ccccc2)CC1 (stereo not shown),1.45%
6,O=C(CSc1ncn[nH]1)N1CCCCC1,0.658%
7,Cc1ccc(C)c(NC(=O)CSc2nnc(CCNC(=O)OC(C)(C)C)o2)c1,3%
8,COCCn1c(SCC(=O)Nc2ccc(OC)cc2)nc2c(oc3ccccc32)c1=O,12.4%
9,O=C(N/N=C/c1ccc(F)cc1)c1sccc1OCc1ccc(F)cc1,1.27%
10,CC(C)c1ccc(OCC(O)CN2CCN(c3ccccc3)CC2)cc1.Cl (stereo not shown),1.24%
11,COc1ccc(NC(=O)CN2CCN(c3ccccc3C)CC2)cc1,-10.7%
12,O=C(Oc1cccc(C(=O)N2CCOCC2)c1)c1ccc(Br)cc1,16.3%
13,CCCn1c(C(=O)OC)cc2c1ccn2-c1ccc(F)cc1,14%
14,CCC(C(=O)NC1CCCCC1)N(Cc1cccs1)C(=O)c1snc(C(N)=O)c1N (stereo not shown),5.07%
15,Cc1ccccc1-c1nnc(SCC(=O)N(CC(C)C)c2c(N)n(CC(C)C)c(=O)[nH]c2=O)n1C,11.9%
16,COc1ccc2cc(C(=O)C3CCCN(C(=O)c4sc(C)nc4C)C3)ccc2c1 (stereo not shown),7.37%
17,COc1ccc(OC)c(NC(=O)COC(=O)CSc2ccc(Cl)cc2)c1,5.68%
18,N#CC1=C(N)Oc2n[nH]c(-c3ccccc3)c2C12C(=O)Nc1ccccc12 (stereo not shown),20.7%
19,COc1ccccc1CN(Cc1cc2c(C)ccc(C)c2[nH]c1=O)Cc1nnnn1Cc1ccco1,15.1%
20,O=C(O)c1ccc(C2NCC(c3ccccc3Cl)c3c2[nH]c2ccccc32)cc1 (stereo not shown),5.07%
21,N#Cc1ccccc1NC(=O)COC(=O)CSc1nc2ccccc2o1,8.1%
22,COc1ccc(-c2nnc(SCC(=O)O)n2Cc2ccccc2)cc1,19.8%

row,SMILES,"hERG current change (%, negative = inhibition) at 1uM"
1,C/C(=C\C(=O)Nc1cc(C)on1)c1ccccc1,7.51%
2,Br.CCCCN1C2=NCCCN2c2ccccc21,-6.43%
3,O=C(CNc1cccc(S(=O)(=O)N2CCCC2)c1)Nc1cccc(Br)c1,3.17%
4,CCOC(=O)N1CCN(C(=O)c2ccc3c(SCC(=O)O)c4c(nc3c2)CCC4)CC1,9.04%
5,Cc1nc(-c2cccc(S(=O)(=O)N3CCCC(C)C3)c2)cs1 (stereo not shown),12.5%
6,CC(C)NC(=O)COC(=O)C1CSC2(c3ccc(Br)cc3)CCC(=O)N12 (stereo not shown),2.94%
7,CCOc1ccc(N(CC)S(=O)(=O)c2ccc3c(c2)oc(=O)n3C)cc1,8.37%
8,COc1ccc(C(C(=O)NC(C)(C)C)N(Cc2cccs2)C(=O)CCC(=O)Nc2cc(C)on2)cc1 (stereo not shown),14.9%
9,Cn1c(=O)c2c(nc(CN3CCC(C(N)=O)CC3)n2Cc2ccccc2F)n(C)c1=O,8.26%
10,COc1cccc(CN(C(=O)/C=C/c2ccc(Cl)cc2)C2CCS(=O)(=O)C2)c1 (stereo not shown),5.84%
11,O=S(=O)(c1ccccc1)n1nc(-c2ccccc2)nc1NCc1ccco1,9.59%
12,O=C(c1ccc(Cl)cc1)[C@@H]1[C@@H]2C(=O)N(c3cccc4ccccc34)C(=O)[C@@H]2C2c3ccccc3C=NN21 (stereo partly shown),11.3%
13,CC(C)c1ccc(OCC(=O)NCc2ccccc2)cc1,2.11%
14,CN(CCCN1CCOCC1)C(=O)c1cc(COc2ccc(F)cc2F)on1,2.35%
15,COc1ccc(-c2c(C)n([O-])c(C)c(C)[n+]2=O)cc1OC,14.1%
16,Cc1cc(C(=O)N/N=C/c2cc(Cl)cc([N+](=O)[O-])c2O)c2ccccc2n1,18.8%
17,O=C(CCl)NCC1CCCO1 (stereo not shown),10.1%
18,COc1ccc(C(=O)Nc2cc3c(oc2=O)CCCC3=O)cc1,19.1%
19,O=C(CN1CCN(c2ccc(O)cc2)CC1)Nc1ccccc1C(=O)NCCc1ccccc1,11.6%
20,Cc1c(C(=O)N(C)Cc2ccc(OC(F)F)cc2)oc2ccccc12,1.03%
21,CC(=O)N(C)c1ccc(NC(=O)Nc2ccc(C)cc2)cc1,6.94%
22,Cc1cc(=O)oc2cc(OC(C)C(=O)NC3CCCC3)ccc12 (stereo not shown),-34.8%

row,SMILES,"hERG current change (%, negative = inhibition) at 1uM"
1,COc1ccc(C(=O)Cc2nnc(C)s2)cc1,13.5%
2,COC(=O)c1cc2nc(-c3ccc(C)cc3)cc(C(F)(F)F)n2n1,-6.16%
3,CC(C)(CNC(=O)c1ccc(Br)o1)N1CCOCC1,8.4%
4,COc1cc(OC)cc(C(=O)NC(=S)Nc2nc(-c3cc4ccccc4o3)cs2)c1,6.79%
5,CCOc1ccc(C2OC34CCCCC3C(C#N)(C#N)C2(C#N)C(=N)O4)cc1OC (stereo not shown),4.84%
6,CCC(=O)N(Cc1cc2c(C)ccc(C)c2[nH]c1=O)C1CCCCC1,-8.25%
7,Cc1ccc(C)c(NC(=O)CN(C)C(=O)COc2ncnc3sccc23)c1,6.33%
8,O=C(NCc1ccc(Cl)cc1)c1cc2ccccn2n1,3.9%
9,COC(=O)N/N=C/c1cn(Cc2ccccc2F)c2ccccc12,11.4%
10,O=C(Nc1cccnc1)C1CC(c2ccc(Cl)c(Cl)c2)=NO1 (stereo not shown),4.65%
11,Cc1cccc(N2C(=O)C3C4CC(C(Br)C4Br)C3C2=O)n1 (stereo not shown),11.6%
12,COC(=O)c1ccc(Oc2cc(C)nc(SC)n2)cc1,10.6%
13,COc1ccc(NC(=O)Cc2nnc(SCC(=O)Nc3ccccc3)n2C)cc1,19%
14,O=C(NCCSc1ccc(Br)cc1)c1ccc2nc[nH]c2c1,7.15%
15,COc1ccc(/C(C)=N/N=C(\C)c2ccc(OC)cc2OC)c(OC)c1,-2.27%
16,COc1ccc2c(c1)OC[C@H]1[C@H]2N2C(=O)CN(Cc3ccc(C)cc3)C(=O)[C@@]2(C)[C@H]1c1ccccc1,23.5%
17,Cc1cc(C)c(NC(=O)COC(=O)C2CCCCC2)c(C)c1,8.1%
18,COc1ccc(Cn2nnnc2C(c2cc3cccc(C)c3[nH]c2=O)N2CCN(C)CC2)cc1 (stereo not shown),12.7%
19,CC(C)n1nc(C(=O)OCC(=O)N2CC(=O)Nc3ccccc32)c2ccccc2c1=O,3.38%
20,CCN1CCN(S(=O)(=O)c2cc(OC)ccc2OC)CC1,19%
21,O=C(Nc1ccc2c(c1)OCO2)C(=O)c1c[nH]c2ccccc12,16.4%
22,CC(NC(N)=O)C12CC3CC(CC(C3)C1)C2 (stereo not shown),15.2%
